Reference: PubChem BioAssay AID1645882 (National Center for Advancing Translational Sciences (NCATS), 2021)
The campaign covered roughly 16,000 compounds. About 120 (0.75%) were called active. About 4% were inconclusive and are not listed. The call rests on the fitted dose curve; in most records, active means well fitted inhibition curve with a large enough effect; inconclusive means small, poorly fitted or top-dose-only effect; inactive means no such curve, though single readings can be large or run the other way. The list shows a part of the results.

Target: Rap guanine nucleotide exchange factor 3 (Homo sapiens) (UniProt O95398)
Sequence of UniProt O95398 (O95398 whole entry, looked up): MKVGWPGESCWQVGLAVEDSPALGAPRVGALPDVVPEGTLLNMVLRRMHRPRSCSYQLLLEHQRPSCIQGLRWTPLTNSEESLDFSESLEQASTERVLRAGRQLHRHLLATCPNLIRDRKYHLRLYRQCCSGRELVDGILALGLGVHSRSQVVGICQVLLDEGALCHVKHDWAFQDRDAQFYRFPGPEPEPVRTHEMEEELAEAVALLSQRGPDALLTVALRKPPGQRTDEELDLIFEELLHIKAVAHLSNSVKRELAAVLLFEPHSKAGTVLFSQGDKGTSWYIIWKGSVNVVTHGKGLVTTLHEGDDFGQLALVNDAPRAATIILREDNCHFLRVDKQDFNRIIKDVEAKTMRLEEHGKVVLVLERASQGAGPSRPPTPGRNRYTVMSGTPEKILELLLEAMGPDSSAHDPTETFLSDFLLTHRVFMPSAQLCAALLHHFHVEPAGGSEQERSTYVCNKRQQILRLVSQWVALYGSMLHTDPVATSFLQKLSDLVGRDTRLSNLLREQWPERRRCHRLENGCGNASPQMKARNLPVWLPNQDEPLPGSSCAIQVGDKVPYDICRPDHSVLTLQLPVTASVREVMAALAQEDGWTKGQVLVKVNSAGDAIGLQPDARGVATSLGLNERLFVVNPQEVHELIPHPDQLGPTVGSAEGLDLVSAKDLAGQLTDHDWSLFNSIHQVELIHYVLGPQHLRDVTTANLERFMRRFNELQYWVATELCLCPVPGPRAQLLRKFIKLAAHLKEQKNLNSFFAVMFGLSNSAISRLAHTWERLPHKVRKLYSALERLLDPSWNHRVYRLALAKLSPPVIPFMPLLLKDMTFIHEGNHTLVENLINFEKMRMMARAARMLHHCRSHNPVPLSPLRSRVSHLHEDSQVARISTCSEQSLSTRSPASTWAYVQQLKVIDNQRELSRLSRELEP
Assay: Validation qHTS for antagonist of cAMP-regulated guanine nucleotide exchange factor 3 (EPAC1);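 further: plate controls were DMSO for no effect and ATA control for full effect; nearly all actives have a fitted effect of over 75% in size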
Conditions: EPAC1 Rap1B-BODIPY-GDP exchange, fluorescence; series mostly up to 150 µM; activity change, negative = inhibition: at the top concentration
Procedure, shortened: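 EPAC1 (100 nM) mixed with 250 nM RAP1B-BODIPY-GDP and 50 uM GDP; compounds in concentration series, 5 min at room temperature. Fluorescence (ex 480/em 540 nm) read every 5 min for 30 min; normalized to ATA control and DMSO.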

| Structure (SMILES) | activity change, negative = inhibition |
| --- | --- |
| N#C/C(=C\c1ccc(O)c(O)c1)C(=O)NCCc1ccccc1 | inactive: 47.2% [at 75.8 µM] |
| CC(=O)O[C@H]1C[C@@]2(C)[C@@H](C[C@@H](O)[C@H]3[C@@]4(C)CC[C@@H](O)[C@@H](C)[C@@H]4CC[C@@]32C)/C1=C(\CCC=C(C)C)C(=O)O | inactive: 6.92% |
| FC(F)(F)c1ccccc1-c1nc(NC2CC2)c2ccccc2n1 | inactive: 3.54% |
| CN(C)c1ncc2nc(CCc3ccccc3)c(=O)n(CCc3ccccc3)c2n1 | inactive: 6.79% |
| N#Cc1ccc(CN2CCCC3(CCN(C(=O)c4ccco4)CC3)C2)cc1 | inactive: 10.7% |
| COc1ccc(-c2nc3cc(C)ccc3cc2CN(C(=O)c2cccs2)C2CC2)cc1OC | inactive: -12.6% |
| NCc1ccccc1Sc1ccccc1CO | inactive: 14.7% |
| CS(=O)(=O)Nc1cccc(-c2nc(NCc3cccnc3)c3ccccc3n2)c1 | inactive: 11.9% |
| COc1ccc(C(=O)NCc2nc(-c3cccc(NC(=O)c4ccc(C)s4)c3)oc2C)cc1 | inactive: 0.361% |
| CC(=O)N[C@@H](CS)C(=O)O | inactive: 0.615% [at 75.8 µM] |
| COCCNc1ncnc2ccc(-c3cccc(NS(C)(=O)=O)c3)cc12 | inactive: 8.47% |
| N[C@@H](Cc1cc(I)c(Oc2ccc(O)cc2)c(I)c1)C(=O)O | inactive: -1.43% |
| O=C(O)CN(CC(=O)O)CC1=CC2C(=CC1=O)Oc1cc(O)c(CN(CC(=O)O)CC(=O)O)cc1C21OC(=O)c2ccccc21 (stereo unspecified) | inactive: -140% |
| Nc1c(NC/C=C\COc2cc(CN3CCCCC3)ccn2)c(=O)c1=O | inactive: 18.9% |
| CN1CCCC(CNC(=O)c2cnn(-c3nccc(-c4cccs4)n3)c2C2CC2)C1 (stereo unspecified) | inactive: 11.3% |
| OC(c1cccnc1)c1ccc2c(c1)CN(Cc1cccc3c1OCO3)CCO2 (stereo unspecified) | inactive: -11.6% |
| CCC1COCCS(=O)(=O)N1Cc1cccc(Cl)c1 (stereo unspecified) | inactive: 1.01% |
| COc1ccc(CNc2ncncc2-c2ccoc2)c(OC)c1 | inactive: -0.885% |
| O=C(c1ccco1)N1CCC2(CC1)CN(c1ncccn1)C2 | inactive: 9.76% |
| COc1cc(-c2cccc(OC)c2OC)cc2c1OCCN(Cc1cn[nH]c1-c1ccc(Cl)cc1)C2 | inactive: -12% |
| COc1ccccc1-c1cncnc1NCCNC(C)=O | inactive: -4.94% |
| O=C(Oc1ccccc1)N1CCC2(CCCN(c3ccccc3)C2)CC1 | inactive: -4.1% |
| CN(Cc1ccco1)c1ccnc(-c2cccc(C#N)c2)n1 | inactive: 0.926% |
| NCCN | inactive: 7.11% |
| C=CCSc1nnc(C2CCCN(Cc3ccccc3O)C2)n1C (stereo unspecified) | inactive: -10.5% |
| COc1cccc(C2(CC(=O)N3CCCCC3CO)CC(=O)N(C)C2=O)c1 (stereo unspecified) | inactive: 15.1% |

| Structure (SMILES) | activity change, negative = inhibition |
| --- | --- |
| COc1ccccc1-c1ccc(C(=O)N(C)CC2COCCO2)c(N2CCN(c3ccccc3F)CC2)n1 (stereo unspecified) | inactive: -5.99% |
| CC(=O)N1CCC2(CC1)CN(c1ccccc1)C2 | inactive: 11.6% |
| CN(C)[C@@H]1C(=O)C(C(=O)NCN2CCCC2)=C(O)[C@@]2(O)C(=O)C3=C(O)c4c(O)cccc4[C@@](C)(O)C3C[C@@H]12 (stereo partly specified) | inactive: -3.33% [at 75.8 µM] |
| CO/N=C(/C(=O)N[C@@H]1C(=O)N2C(C(=O)[O-])=C(C[n+]3ccn4ncccc43)CS[C@H]12)c1nsc(N)n1 | inactive |
| CN(C)C(=O)c1ccc(-c2cncnc2N(C)Cc2ccco2)cc1 | inactive: 1.46% |
| COc1ccc(NC(=O)N2CCCC3(CCN(S(C)(=O)=O)CC3)C2)cc1 | inactive: 6.43% |
| CCCCC/C=C\C/C=C\CCCCCCCC(=O)NCC(=O)O | inactive: 16.1% [at 15.3 µM] |
| CS(=O)(=O)Nc1cccc(-c2nc(N3CCNCC3)c3ccccc3n2)c1 | inactive: -24.4% |
| COc1ccccc1CN1CCCC2(CCN(S(=O)(=O)c3ccccc3)CC2)C1 | inactive: 12.6% |
| COc1cc2oc(-c3ccccc3)cc(=O)c2cc1OC | inactive: 10.2% |
| CN(C)C(=O)c1ccc(-c2nc(Nc3ccccc3)c3ccccc3n2)cc1 | inactive: -15% |
| CC(C)[C@@H]1C(=O)N(S(C)(=O)=O)[C@H]2CCN(C(=O)/C=C\CN3CCCCC3)[C@@H]12 | inactive: 13.9% |
| CC(=O)N1CCC2(CCN(Cc3nccs3)CC2)CC1 | inactive: 16.2% |
| COc1ccc(F)c(CN2CCOc3ccc(CN4CCCCC4CO)cc3C2)c1 (stereo unspecified) | inactive: 6.5% |
| CC[C@H](C)C(=O)O[C@H]1C[C@@H](C)C=C2C=C[C@H](C)[C@H](CC[C@@H]3C[C@@H](O)CC(=O)O3)[C@H]21 | inactive: -4.53% [at 201 µM] |
| COc1cccc(Cn2c(=O)c(C)nc3cnc(Oc4ccccc4)nc32)c1 | inactive: 3.71% |
| CC(C)CN1CCCC2(CCN(S(=O)(=O)c3ccccc3)CC2)C1 | inactive: 7.25% |
| O=C(c1ccco1)N1CCC2(CCCN(c3cccc(-c4ccccc4)c3)C2)CC1 | inactive: 7.37% |
| CCCCCCCCCCCCCCCC(=O)OCC(COP(=O)(O)O)OC(=O)CCCCCCCCCCCCCCC (stereo unspecified) | inactive: 24.9% [at 15.3 µM] |
| CCOC(=O)c1c(C)cc(O)c(C=O)c1O | inactive: 16.9% |
| COC(=O)C1=C(C)NC(C)=C(C(=O)OCCCN2CCC(c3ccccc3)(c3ccccc3)CC2)C1c1cccc([N+](=O)[O-])c1 (stereo unspecified) | inactive |
| O=C(O)C[C@@H]1NC(=O)[C@H](Cc2ccccc2)NC1=O | inactive: -5.9% |
| CCN(CC)CCOC(=O)c1ccc(N)cc1 | inactive |
| COc1ccc(/C=c2\[nH]c(=O)/c(=C/c3ccc(OC)cc3)[nH]c2=O)cc1 | inactive: 15.9% |
| COc1ccccc1-c1ccc2ncnc(N3CCNCC3)c2c1 | inactive: 2.41% |
